# PubChem BioAssay AID651820 (National Center for Advancing Translational Sciences (NCATS), 2012)
# In all, about 340,000 compounds went through this assay and about 12,000 (3.5%) were called active. The shares of active, inactive and inconclusive entries below differ from those in the screen. Calls follow the shape of the dose curve; as a rule, active = well fitted inhibition curve with a large enough effect; inconclusive = small, poorly fitted or top-dose-only effect, or another doubt; inactive = no such curve, though single readings can be large or run the other way. Potencies of inconclusive entries are left out as doubtful fits.
# Assay: qHTS Assay for Inhibitors of Hepatitis C Virus (HCV)
# Settings: Huh7.5.1 HCVcc-Cre (HCVcc is cell-culture hepatitis C virus) infection, luciferase reporter, 44 h; activity change, negative = inhibition: at 41.8 µM (top of the series) unless noted
# In short: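 Whole-lifecycle infectious HCVcc-Cre system; cells 1,000/well, compound then virus (~0.5 moi) added 4 h after plating, 44 h culture. Luciferase read 15 sec following 15 min substrate incubation, room temp.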
# % is scaled to controls: 0 for no effect and ±100 for the full control effect; potency is read from the fitted curve at half-maximal effect; tags tell the direction and shape of the fitted curve.
SMILES,Potency,"activity change, negative = inhibition"
Cc1ccc(C)c2[nH]c(=O)c(CN(CCN3CCCC3)C(=O)Nc3ccc(F)cc3)cc12,"inconclusive [inhibitor, single point]",
N/C(=N\OC(=O)COc1ccccc1)c1cccnc1,inactive,
COc1ccc(Cc2nnc(N/N=C/c3ccc(O)cc3)[nH]c2=O)cc1OC,active: 0.891 µM,
COCCNC(=O)C(C)Oc1ccccc1 (stereo not given),inactive,
CCN1C(=O)c2cccc3c(NC(=O)c4ccccc4)ccc1c23,"inconclusive [inhibitor, partial curve]",
O=C(NC(=S)Nc1ccccc1N1CCCC1)c1ccc(F)cc1,"inconclusive [inhibitor, partial curve]",
COc1ccc(N2CC(C(=O)Nc3cc(C(F)(F)F)ccc3N3CCCC3)CC2=O)c(OC)c1 (stereo not given),"inconclusive [inhibitor, single point]",
COc1cc2c(cc1OC)CN(c1ccc([N+](=O)[O-])c(C(F)(F)F)c1)CC2,"inconclusive [inhibitor, partial curve]",
CCCCn1c(NS(=O)(=O)c2ccccc2)c(C(=O)OCC)c2nc3ccccc3nc21,"inconclusive [inhibitor, partial curve]",
CCOc1cc(CNCCc2c[nH]c3ccccc23)cc(Cl)c1OCC,"inconclusive [inhibitor, full curve, poor fit]",
COc1ccc(C(=O)OCC(=O)Nc2ccc(Cl)c(C(F)(F)F)c2)c(OC)c1OC,"inconclusive [inhibitor, full curve, poor fit]",
CCOC(=O)/C=C(\C)Sc1cc(=O)oc2ccccc12,"inconclusive [inhibitor, partial curve]",
Cc1cccc(NC(=O)c2cc([N+](=O)[O-])ccc2N2CCCCC2)n1,"inconclusive [inhibitor, single point]",
COc1cc(C(=O)OCC(=O)Nc2ccc(N3CCOCC3)cc2)ccc1OCC(C)C,inactive,
Cc1cccc2sc(NNC(=O)C3COc4ccccc4O3)nc12 (stereo not given),,inactive: 5.48% [at 8.37 µM]
CCn1c(SCC(=O)Nc2sc3c(c2C#N)CCCC3)nnc1-c1ccco1,"inconclusive [inhibitor, full curve, poor fit]",
COc1ccc(N=C2SC(C(=O)Nc3ccc4c(c3)OCO4)CC(=O)N2C)cc1 (stereo not given),"inconclusive [inhibitor, single point]",
COc1cc(NC(=O)COC(=O)/C=C/c2c(C)nn(-c3ccc(F)cc3)c2Cl)cc(OC)c1,"inconclusive [inhibitor, full curve]",
CCn1cc(/C=N/NC(=O)c2ccc3c(c2)OCO3)c(C)n1,inactive,
COc1ccc(C(=O)c2ccc3oc(-c4ccc(OC)cc4)c(C#CCCO)c3c2)cc1,"inconclusive [inhibitor, partial curve]",
Cc1ccc(S(=O)(=O)N2CCCCC2C(=O)Nc2ccc(N(C)C)cc2)cc1 (stereo not given),"inconclusive [inhibitor, single point]",
COc1cc(C(=O)Nc2ccc(N(C)C)cc2)c([N+](=O)[O-])cc1OC,inactive,
CCOC(=O)c1c(C)[nH]c(C)c1C(=O)CSc1nc2ccccc2c(=O)n1-c1ccc(CC)cc1,inactive,

SMILES,Potency,"activity change, negative = inhibition"
Clc1ccc(-n2ncc3c(NCc4ccco4)ncnc32)cc1,"inconclusive [inhibitor, partial curve]",
CC1(C)Cc2nc3sc4c(=O)n(Cc5ccccc5)cnc4c3cc2CS1,"inconclusive [inhibitor, full curve, poor fit]",
Cc1ccc(CNC(=O)c2cc(-c3ccccc3)nn2CC2CC(c3cccc([N+](=O)[O-])c3)=NO2)cc1 (stereo not given),"inconclusive [inhibitor, single point]",
Cc1nc(C)n(CC(O)COc2ccc3cc(Br)ccc3c2)n1 (stereo not given),"inconclusive [inhibitor, partial curve]",
COc1ccccc1C1c2[nH]c3ccccc3c2CCN1Cc1ccc(NC(C)=O)s1 (stereo not given),"inconclusive [inhibitor, single point]",
O=C(Cc1ccccc1)N/N=C/c1ccccc1OCc1ccc(Cl)cc1,"inconclusive [inhibitor, single point]",
CC(C)C(CC(=O)NCc1ccco1)c1ccco1 (stereo not given),inactive,
CCCOc1ccc(/C=C2\SC(N)=NC2=O)cc1OC,inactive,
Cn1ncc(Cl)c1C(=O)NCc1ccc(Cl)cc1,"inconclusive [inhibitor, single point]",
Cc1cc(CNC(=O)COc2ccc([N+](=O)[O-])cc2)c2ccccc2n1,"inconclusive [inhibitor, single point]",
CC1CC(C)CN(Cc2nc(N)nc(Nc3ccc4ccccc4c3)n2)C1 (stereo not given),active: 12.6 µM,
CC1CCCCC1NC(=O)c1ccc(-n2cncn2)cc1 (stereo not given),inactive,
COc1ccc(NC(=O)CN(C)C(=O)c2ccc(N3CCCCC3)c([N+](=O)[O-])c2)cc1,"inconclusive [inhibitor, single point]",
COc1ccc(C(=O)c2c[nH]c(C(=O)NCc3cccnc3)c2)cc1,inactive,
CC1(C)CC2CC(C)(CN2c2ncnc3ccc(Br)cc23)C1 (stereo not given),active: 10 µM,
O=C(NN=C1CCC(c2ccccc2)CC1)c1ccccc1-n1cccc1 (stereo not given),inactive,
C=CCn1c(N)cc(=O)nc1SCC(=O)Nc1ccc(C(=O)OCC)cc1,inactive,
Cc1ccc(C(=O)N2CCC(C(=O)c3c(C)cc(C)cc3C)CC2)cc1,active: 11.2 µM,
O=C(NCCCc1ccccc1)c1cccc(Br)c1,"inconclusive [inhibitor, single point]",
COc1ccc(C2CC(O)(c3ccccc3)Oc3c(C)ccc(C)c32)cc1 (stereo not given),"inconclusive [inhibitor, partial curve]",
CC(C)COc1ccc(-c2nnc(-c3ccco3)o2)cc1,"inconclusive [inhibitor, single point]",
COc1cccc(CN(C)C(=O)c2cccc(S(=O)(=O)Nc3cccc(C)c3)c2)c1OC,"inconclusive [inhibitor, single point]",
